Test results as given in PubChem BioAssay AID720709 (National Center for Advancing Translational Sciences (NCATS), 2013).
In all, about 360,000 compounds went through this assay and about 520 (0.14%) were called active. The inconclusive results got no clear call from the source; some entries with a clear call stand among them for comparison. Calls come from the whole dose curve; as a rule, active = well fitted inhibition curve with a large enough effect; inconclusive = small, poorly fitted or top-dose-only effect; inactive = no such curve, though single readings can be large or run the other way. Potencies of inconclusive entries are left out as doubtful fits.

Molecular target: Rap guanine nucleotide exchange factor 3 (Homo sapiens) (UniProt O95398)
Sequence of UniProt O95398 (O95398 whole entry, looked up): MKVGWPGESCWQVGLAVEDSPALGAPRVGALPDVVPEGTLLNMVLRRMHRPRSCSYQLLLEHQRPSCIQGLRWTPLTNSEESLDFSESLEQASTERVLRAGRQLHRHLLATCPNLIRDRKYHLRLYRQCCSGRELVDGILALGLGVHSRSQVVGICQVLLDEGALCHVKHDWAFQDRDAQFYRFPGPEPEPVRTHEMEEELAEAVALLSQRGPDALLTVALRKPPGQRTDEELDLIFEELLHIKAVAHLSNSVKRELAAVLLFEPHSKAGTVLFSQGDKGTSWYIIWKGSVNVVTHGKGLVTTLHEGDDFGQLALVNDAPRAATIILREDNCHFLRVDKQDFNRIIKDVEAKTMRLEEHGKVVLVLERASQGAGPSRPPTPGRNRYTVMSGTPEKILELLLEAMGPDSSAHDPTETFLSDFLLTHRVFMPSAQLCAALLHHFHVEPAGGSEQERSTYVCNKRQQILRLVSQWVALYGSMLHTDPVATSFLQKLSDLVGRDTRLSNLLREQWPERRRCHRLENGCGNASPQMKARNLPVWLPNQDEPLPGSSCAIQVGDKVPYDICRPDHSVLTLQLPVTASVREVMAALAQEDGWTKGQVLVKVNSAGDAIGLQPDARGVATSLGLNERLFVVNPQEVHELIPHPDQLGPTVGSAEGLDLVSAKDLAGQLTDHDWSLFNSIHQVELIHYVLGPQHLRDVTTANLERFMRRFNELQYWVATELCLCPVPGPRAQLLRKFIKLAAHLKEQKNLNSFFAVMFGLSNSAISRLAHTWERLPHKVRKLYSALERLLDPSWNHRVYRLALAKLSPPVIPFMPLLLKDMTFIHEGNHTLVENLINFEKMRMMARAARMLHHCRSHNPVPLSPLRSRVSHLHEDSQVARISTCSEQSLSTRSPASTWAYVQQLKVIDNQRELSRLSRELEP
Test: qHTS for Antagonist of cAMP-regulated guanine nucleotide exchange factor 3 (EPAC1): primary screen; note: nearly all actives have a fitted effect of over 50% in size
Settings: EPAC1 GEF assay, Rap1b-BODIPY-GDP exchange fluorescence; series mostly up to 115 µM
Potency is the fitted concentration of half-maximal effect; tags give direction and shape of the fitted curve.

Structure (SMILES)	Potency
Cc1ccc(Cc2c(-c3cccc(Cl)c3)nc3ccc(Br)cn23)cc1	inconclusive [inhibitor, full curve, poor fit]
Cc1cccc(N2C(=O)C(O)=C(C(=O)c3cccs3)C2c2cccc(Oc3ccccc3)c2)n1 (stereo not drawn)	inconclusive [inhibitor, partial curve]
CCc1ccc([C@@H]2CC=C(C(=O)O)[C@H](c3ccccc3)N2S(=O)(=O)c2ccc(C)cc2)cc1	inactive
S=C(NCc1ccco1)N1CCN(c2ccc(Cl)cc2)CC1	inconclusive [inhibitor, partial curve]
COc1ccc(NC(=O)CSc2ccccc2)c([N+](=O)[O-])c1	inconclusive [inhibitor, partial curve]
Cc1ccc(S(=O)(=O)N2CCN(C(=O)CC(C)n3nc(C)c(Cl)c3C)CC2)cc1 (stereo not drawn)	inconclusive [inhibitor, partial curve]
CC(=O)N(/C=C1\SC(=S)N(c2ccccc2)C1=O)c1ccccc1	inconclusive [inhibitor, partial curve, poor fit]
CCOc1c(Cl)cc(CNc2ccc(N3CCCC3)cc2)cc1OC	inactive
COC(=O)C(Cc1ccc(O)cc1)NC(=O)CCc1nc2ccccc2s1 (stereo not drawn)	inconclusive [inhibitor, single point]
CC1=C/C(=N\S(=O)(=O)c2ccccc2)C(C(C)C)=CC1=O	inconclusive [inhibitor, full curve, poor fit]
C=CCn1c(SCC(C)=O)nnc1-c1ccc2ncccc2c1	inconclusive [inhibitor, single point]
CC1CC1c1ccc(/C=C(\C#N)C(=O)Nc2cc(Cl)ccc2Cl)o1 (stereo not drawn)	inactive
COc1ccc(OCC(=O)NCCC2=CCCCC2)c([N+](=O)[O-])c1	inconclusive [inhibitor, single point]
COc1ccc(N2CCN(C(CNS(=O)(=O)c3ccccc3)c3ccccc3)CC2)cc1 (stereo not drawn)	inactive
Cc1c(C)n(Cc2ccc(Cl)cc2)c2ccc(C(=O)NCCCN3CCOCC3)cc12	inconclusive [inhibitor, partial curve]
COc1ccc(C(OCC(O)CNCCc2ccc(S(N)(=O)=O)cc2)c2ccc(OC)cc2)cc1 (stereo not drawn)	inactive
COc1ccc(S(=O)(=O)Nc2ccc(S(=O)(=O)N(C)C)cc2)cc1[N+](=O)[O-]	inconclusive [inhibitor, partial curve]
CSc1ccc(CN(C)CC(=O)NCc2ccccc2)cc1	inconclusive [inhibitor, partial curve]
